The other results are listed elsewhere or left out. At the low end of the ranking the order means little.

The target of the assay is T1, GST-Rok-C97-191 (UniProt O34857).
T1 sequence: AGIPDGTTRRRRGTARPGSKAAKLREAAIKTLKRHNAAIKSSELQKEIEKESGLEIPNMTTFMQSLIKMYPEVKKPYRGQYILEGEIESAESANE
Nature of the assay: protein binding microarray.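 Also: rank score from −0.5 (least bound) to 0.5 (best bound).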 To be noted: Rok is a gene silencer of Bacillus subtilis; high values mean tight binding; most listed sequences are background and not binding sites; double strand, one strand shown.
As to AACGTTGC, the binding signal was -0.026 E-score.

As for CGAGAACA, the binding signal turned out to be 0.0544 E-score.

Sequence CGCTTGTA returned a binding signal of -0.0651 E-score. The same measure for AGTGCAGC: -0.17 E-score. The same measure for AGGCTAAT: -0.085 E-score; for GTTCACTA: 0.143 E-score; for AGGAACAA: 0.00858 E-score. The same measure for ATACTATC: 0.359 E-score. Sequence GATCACCA had a binding signal of 0.041 E-score. The same measure for CAGAACTC: -0.00555 E-score. The same measure for GCCAAATA: 0.0984 E-score; for ACACTGGG: -0.257 E-score. For CATATTAG the value was 0.274 E-score; for GGCGCAAC, -0.169 E-score; for AAAAACCT, 0.256 E-score. AATGGCGT: the binding signal was -0.0931 E-score. The same measure for AGGTCTCC: -0.157 E-score. For ATTGCAAA the value was 0.00635 E-score; for GTGATAGA, 0.268 E-score; for AGTTAGTC, 0.102 E-score. For ACCAGGTA the value was -0.0594 E-score; for AGGGTCGC, -0.122 E-score. Sequence CGGTCTGA showed a binding signal of -0.0369 E-score. As for CTGAAGCA, the binding signal is -0.0795 E-score.

As for CATCAACC, the binding signal was -0.0486 E-score.

Sequence ATAAAGCG gave a binding signal of -0.0612 E-score. With AGGAGCCG, the binding signal was -0.0611 E-score.

The sequence GGCCGCGA yielded a binding signal of -0.23 E-score.

Sequence GAGCTGAC gave a binding signal of -0.127 E-score. The same measure for CTGGGACA: -0.177 E-score; for ATTGTGGC: 0.118 E-score.

In the case of AGATCTGA, the binding signal is 0.0507 E-score. For AATAGGCC the value was -0.0959 E-score; for GAAGATAC, 0.186 E-score; for CTGAACAA, -0.0142 E-score.

CACTTGTA gave a binding signal of 0.238 E-score. On to CAAAGACA, for which the binding signal was -0.0129 E-score. The same measure for GCTACAGC: 0.141 E-score; for GAGTCAGA: -0.155 E-score. The same measure for GTTGTGTA: 0.169 E-score. For AAATTCCA the value was 0.103 E-score; for AATCGGGT, -0.0571 E-score; for ACGTGCAC, 0.0307 E-score. In turn, CCAGCACC displayed a binding signal of -0.177 E-score. The same measure for AGGTATCC: 0.0358 E-score. The sequence CCCAGCAC gave a binding signal of -0.245 E-score. For GCTGGAAC, the binding signal is -0.0935 E-score. For the sequence AAAATCCC, the binding signal came out at 0.00514 E-score. For AGTGAGTG the value was -0.0687 E-score. The same measure for CTCACGAA: -0.062 E-score; for CCGTATTA: 0.172 E-score; for GGCCCGCA: -0.219 E-score.

The sequence GGGGTAGA yielded a binding signal of 0.156 E-score. The same measure for CAGGAAAC: 0.103 E-score; for AACCACAA: -0.0553 E-score. For CATCCCCA the value was -0.111 E-score; for GGCCCTTA, -0.222 E-score. For CCGTCGGA the value was -0.101 E-score.

The sequence AACCCCTG had a binding signal of -0.151 E-score. For CCAGTCTA the value was -0.0781 E-score; for CATCGAAC, -0.135 E-score; for GTGACGTA, -0.169 E-score.

GAAGCCGC displayed a binding signal of -0.35 E-score. For ATACGTGG the value was -0.105 E-score. For GGTCGTTA the value was 0.0571 E-score; for CAAAACAC, -0.159 E-score; for CTGCAAGC, -0.228 E-score. On to AACTAGTC, for which the binding signal was 0.0892 E-score. The same measure for CAGGCGCA: -0.202 E-score; for ACATACCT: 0.27 E-score. For ATAAAACC the value was 0.208 E-score; for ATGACCGC, -0.102 E-score; for CTATTCCA, -0.0229 E-score.

On to CAACTTCG, for which the binding signal worked out at 0.00642 E-score. The same measure for CTCTTCAC: -0.0517 E-score; for GTCCGGAA: -0.0863 E-score; for ATCGAATG: 0.0472 E-score. For CCGCCGGC the value was -0.4 E-score; for CCGCCCAC, -0.216 E-score. The same measure for AGAGCTTC: -0.253 E-score.

Sequence ACTTCAAT had a binding signal of 0.0342 E-score. CCGTAGAA: the binding signal stood at 0.289 E-score. For AAGGCGCC the value was -0.282 E-score. The same measure for CGTGATAA: 0.219 E-score. For ATAAGTGG the value was 0.202 E-score.

As to CAGAGGTA, the binding signal stood at 0.0944 E-score.

Consider ATCTTTTC, for which the binding signal turned out to be 0.076 E-score.

For the sequence AACTCATG, the binding signal is -0.00495 E-score. ACGTGCAT gave a binding signal of -0.0397 E-score. The same measure for TCGAACCA: 0.00396 E-score; for GGGGATGA: -0.204 E-score. The same measure for ATGCCAAG: -0.16 E-score; for CCCGGGTC: -0.334 E-score.

Sequence CAAGCTGC had a binding signal of -0.171 E-score. The same measure for TTCAGCAA: -0.13 E-score; for CGTGCTTC: 0.0493 E-score. For GGGGCCCA the value was -0.336 E-score; for AAAGGGAA, -0.091 E-score; for CACGTTAA, 0.136 E-score. The same measure for AGCGCATA: 0.231 E-score; for ATCTAGAG: 0.0411 E-score; for AACTAAAC: 0.00571 E-score. GCACGTAA displayed a binding signal of -0.139 E-score.

Regarding ATAGGTTA, the binding signal is 0.162 E-score.

ACTCATAG displayed a binding signal of -0.144 E-score.

Sequence CCCAGCGA yielded a binding signal of -0.182 E-score.

As to TTAATGAA, the binding signal stood at 0.086 E-score. The sequence ATTCGGTA registered a binding signal of 0.317 E-score. As to ATATTGGC, the binding signal was -0.00167 E-score. For GCGATGCA the value was -0.135 E-score. The same measure for GACTTCTC: 0.0676 E-score; for CACCACCA: -0.257 E-score; for ACCATCTC: -0.0625 E-score. For GAACCTTA the value was -0.0663 E-score. Sequence GAGATCGA returned a binding signal of -0.0169 E-score. In turn, GAAGATCC came in with a binding signal of -0.193 E-score. On to CCGAATTA, for which the binding signal came to 0.223 E-score. The same measure for AGGACGAG: -0.295 E-score. In the case of TAAGCTTA, the binding signal was determined as 0.0724 E-score.

GGTTTGGA came in with a binding signal of -0.0233 E-score. CATTAAGA displayed a binding signal of -0.0232 E-score. For the sequence CCATAGGG, the binding signal is -0.215 E-score. GGAGCCGA: the binding signal is -0.122 E-score. For AATTTTTC the value was 0.0422 E-score; for ACACGTGA, -0.0605 E-score.

AATGGTAG showed a binding signal of 0.441 E-score. The same measure for AATGATCG: -0.0194 E-score; for CCTATAGC: -0.0524 E-score. As for GCGAGGAC, the binding signal is -0.254 E-score. CCTCGCTA showed a binding signal of -0.0957 E-score. For CAAACGGG the value was -0.143 E-score; for AATATATC, 0.424 E-score. The sequence AACCCCCC came in with a binding signal of -0.253 E-score.

Turning to GCTGTCCC, the binding signal is -0.151 E-score. The same measure for CCCTCTCC: -0.322 E-score.

CCCTGACG displayed a binding signal of -0.285 E-score. For GAACCGCA the value was 0.0149 E-score; for ACAATTCC, 0.14 E-score; for GGAACGTA, 0.0118 E-score. For AGGGGACC the value was -0.326 E-score; for GCGCCCTA, -0.153 E-score. The same measure for CGTAGAGA: 0.0853 E-score; for CGGCATCA: -0.134 E-score; for CAACGCTA: 0.0222 E-score. Take AGCAGACT: the binding signal is -0.0772 E-score.

In the case of GTACGAAA, the binding signal stood at 0.156 E-score. Regarding AATGGCGG, the binding signal was -0.112 E-score. The same measure for ACAGATAA: 0.209 E-score; for CAAGACGC: -0.162 E-score; for GAGCCCAA: -0.17 E-score. GCTTGCGA displayed a binding signal of -0.104 E-score. The same measure for GCGGCAGC: -0.314 E-score; for CCGCACTA: 0.0974 E-score; for CTCCTCAG: -0.365 E-score.

With AGAATGTA, the binding signal turned out to be 0.244 E-score.

As for ACCTTTGC, the binding signal was -0.116 E-score. AGTCCGCG had a binding signal of -0.0669 E-score. The same measure for GGATATGA: 0.131 E-score; for GGTGGCAA: -0.0889 E-score; for AGTGATAA: 0.201 E-score.

Regarding AAACGGGT, the binding signal amounted to 0.00354 E-score. For CAAACGCA the value was -0.121 E-score; for ACGTGGAA, -0.198 E-score.

The sequence CTACGTAG displayed a binding signal of 0.291 E-score. In turn, CGTCGACG returned a binding signal of -0.308 E-score.

Take ACGTTGGA: the binding signal was -0.105 E-score. The same measure for AAATGAGG: -0.0116 E-score. For TAAGAGCA the value was -0.00935 E-score.

ACGCTCCA came in with a binding signal of -0.142 E-score. For CTCATTCA the value was -0.0696 E-score; for ACACGTCG, -0.0369 E-score; for CCAACCTC, -0.206 E-score.

Values taken from article PMC6212790.
